Measurements: publication PMC12136788
This is one part of the list.

T1: UNK ZnF1-3 (human, UniProt Q9C0B0 31-174)
T1 sequence: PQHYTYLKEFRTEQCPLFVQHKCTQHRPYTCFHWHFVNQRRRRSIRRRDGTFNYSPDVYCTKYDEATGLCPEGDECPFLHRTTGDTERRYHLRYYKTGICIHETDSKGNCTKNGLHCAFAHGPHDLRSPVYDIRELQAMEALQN

B1: chr11:111909998:111909999:+_ENSG00000150768_ENST00000533297|hu_hu|FALSE|FALSE (ssRNA)
RNA: GGGAGUUCUACAGUCCGACGAUCACCCUUCCCUUUGGUCCAGCAGGAGUAGCUGGGCAGGGUGCUGAAGGUGUAGGAGCUAAAGGCUGGGGAGUUGGAGGAACAGCGGCCACCGGGGGUGGGGUAGGUGGUGGCACUUGUGGUCAACAGAGGAUUGAGCAUCA
B2: chr7:141450121:141450122:+_ENSG00000106028_ENST00000265304|hu_mus|hu_hu_hu_mus_True|8_68 (ssRNA)
RNA: GGGAGUUCUACAGUCCGACGAUCUCAUCCGUUCUAUGCCUUUUCUUUUGUCUGGUCACUCAGAAAUAUAAUAUUAUCAGCUAUGAUUGUUGUUGCUUGCCGCCUCACAUUGUUUUUAUCCAUGUACUCACCAUAGUCCACUUUCAACAGAGGAUUGAGCAUCA
B3: chr4:86222399:86222400:+_ENSMUSG00000070934_ENSMUST00000091064|mus_hu|FALSE|FALSE (ssRNA)
RNA: GGGAGUUCUACAGUCCGACGAUCGAAUGUAGCUCUUUCGAACAGCAGAACUUCAUCGGCCUCAAUGAUUUGGGCAAAAUUCCUGAGGUUCAUCUCCAGCUGCUGAACGUUGGGAAUCAGCUGGUAGACGAUGCUGGACCAGGCCAACAGAGGAUUGAGCAUCA
B4: 165202529_165202649_5379_3pUTR_ENSMUSG00000017667_ENSMUST00000103084|mouse|control|control (ssRNA)
RNA: GGGAGUUCUACAGUCCGACGAUCGUUCUCUUCCUGUACCAUGUGGGUCCCGGGACCAAACACAGGUUGUCUGGCUUGGUGGCAGGUGAUGUUACCCCACACCAUCUGGAAGCCCCUCAGAGUCUUUAUAGAUGCAGUAAUAAUCAACAGAGGAUUGAGCAUCA
B5: chr19:47150976:47150977:-_ENSG00000197380_ENST00000391916|hu_mus|FALSE|FALSE (ssRNA)
RNA: GGGAGUUCUACAGUCCGACGAUCACAGUAAUUUCUUUAAUAAAAAAAAAAAAACAAAAACAAACAAAUCAAAAAAACCCACUGGAUUGGAACAGCUGAGGGUCAUUCAGCGUCCCCCACCCCCCGUGGGGAGAGGCACGAGAUCAACAGAGGAUUGAGCAUCA
B6: chr18:56819859:56819860:+_ENSG00000166562_ENST00000588875|hu_mus|hu_hu_hu_mus_True|68_88 (ssRNA)
RNA: GGGAGUUCUACAGUCCGACGAUCAACCUUGAUUACUCUGUGAACUAUUGGAAUGUCUCUUCCUUCAACUUUAAAAACAACUAUUUCACCAGCUCUGAUGGGGUCCUCCCGGAAAUUCGUGAGGAACAGCAGAUCUCCUCUGUGCAACAGAGGAUUGAGCAUCA
B7: chr2:183789671:183789672:-_ENSG00000061676_ENST00000360982|hu_mus|FALSE|FALSE (ssRNA)
RNA: GGGAGUUCUACAGUCCGACGAUCUUAUGGCAGGUACACUUGAAUUUCAAAUGUUAAAACAUAUAAAAAGUGAUUCGGGACUACCAUCUGUAUCAACAGUUGCCAAGUGUCUGGUUGUUUAUUAUACAGCAGGGUAAAGGCAGUCAACAGAGGAUUGAGCAUCA
B8: chr14:63848828:63848829:-_ENSG00000154001_ENST00000337537|hu_hu|FALSE|FALSE (ssRNA)
RNA: GGGAGUUCUACAGUCCGACGAUCACGCUGACGAUCUGACUUGUAUGUGGCUGUCAGCUCGUCAAACAUGGUGCUGUUCAUUUCCAUAAAUGCCUUCAACACAUUGUACACCAACGCCACAAUAGCCGGAUUCCAAUGUUCUUUCAACAGAGGAUUGAGCAUCA
B9: chr2:160604994:160604995:+_ENSG00000136536_ENST00000409591|hu_mus|motif|central (ssRNA)
RNA: GGGAGUUCUACAGUCCGACGAUCUCUUGAAGACUCAUCCCUUCCCUCUCGCCUCCUUCUCGAGAACAAAGGUGUGCAUCGGUUUCGGAGUGAAGAAGACAACCAUGGUCCUGAAUUUCUACCUUCUGAUUCUUGGUUAAAAUUCAACAGAGGAUUGAGCAUCA
B10: 96340820_96341848_1134_3pUTR_ENSMUSG00000031217_ENSMUST00000052839|mouse|control|control (ssRNA)
RNA: GGGAGUUCUACAGUCCGACGAUCCUCCAGUCCCUCCAAGCUCCCAUUGGACGUUGAUGUAAUGUAGUAAUCGUGGUACUUUUUGAAUUCCAGGCCCAUGUAGUUGGGGCUGAACUCUUGGAACUUGAUGGUGAAGCGGAUUUCCAACAGAGGAUUGAGCAUCA
B11: chr1:66480114:66480115:+_ENSMUSG00000015222_ENSMUST00000024639|mus_hu|mus_mus_mus_hu_True|48_98 (ssRNA)
RNA: GGGAGUUCUACAGUCCGACGAUCUGGCCUGUGGCGGAUGUUCUUUAGAGAGCCACAUUUGGAUGUCACAUGGCUUAGGUCUAUUUUCUUAGUAACAAUUUGUACCUGCCCCCCUUUAGGCUGGUAUUUGAUGUUGUCUGUUGACAACAGAGGAUUGAGCAUCA
B12: chrX:119680447:119680448:-_ENSG00000158290_ENST00000371322|hu_hu|motif|central (ssRNA)
RNA: GGGAGUUCUACAGUCCGACGAUCAAACAAAAAAAUGCUCCUGAUCAUGAUCAUUUGUCUGCAAUGGUUUUGCCAGCAUCGGUCAAUCUUCUUUAAAAAAAGAACGCUAUCCAAUGAAUCCUCUCUGAAUUGAUGAAUCUGUGCCAACAGAGGAUUGAGCAUCA
B13: chr16:49915050:49915051:+_ENSMUSG00000055447_ENSMUST00000084838|mus_mus|FALSE|FALSE (ssRNA)
RNA: GGGAGUUCUACAGUCCGACGAUCAUUAAGUAUAUAUAAUAUUACAGGGUAAUAUUUACACAGUUAUUUUUUUAAAUAAAAAAGUAUCUUGGCAAAGAUUGCAGGUAUUCAAAGCUUCAAACAGUGAUAAAUUGAUUUAAUACACAACAGAGGAUUGAGCAUCA
B14: chr17:13109412:13109413:+_ENSMUSG00000068039_ENSMUST00000151287|mus_mus|FALSE|FALSE (ssRNA)
RNA: GGGAGUUCUACAGUCCGACGAUCGUGCUGCGGUCCCCGAACACGGACAAAGGACCCUCCAUCUUCAGGAAACGAAGCAAAGCUCACUACGGCCGCAGACAACCGAUAGCUCCGCUCUGAGACCGUUUAACGGCCACCACGGCGCAACAGAGGAUUGAGCAUCA
B15: 14487958_14488078_7305_CDS_ENSG00000038382_ENST00000344204|human|control|control (ssRNA)
RNA: GGGAGUUCUACAGUCCGACGAUCCCCAAGCGGCAGGGUGCCCAGGCUAGCGCGCGCGUCCUUGGCGGGGGCGUCUGGGCUCGACCCCGAGGCGUUCGCGGCGCCUUUCCUGGGGCUCUCCAGCACCUUCAUCUUGGGGAUCGGCAACAGAGGAUUGAGCAUCA
B16: chr2:9570881:9570882:+_ENSG00000119203_ENST00000238112|hu_mus|hu_hu_hu_mus_False|8_88 (ssRNA)
RNA: GGGAGUUCUACAGUCCGACGAUCACUUGUCUUCUGAAGGAACCAGGGCAGAGCUCCACAGUGAUCCAAAUGGAAAUGACUGAUCAACAGAAGGUCGAUCUCAGCUGGGUCGAUAAGGUCAAUGUAAGGAAGAGCAUCCAUUCCCAACAGAGGAUUGAGCAUCA
B17: chr11:57926588:57926589:+_ENSMUSG00000020515_ENSMUST00000020822|mus_hu|motif|central (ssRNA)
RNA: GGGAGUUCUACAGUCCGACGAUCGUCAAUCCCUUCCUCUUCAUGCUUCUGAAACUGUAGUCCUGAGUUAGCAAGGAGAUCGGUGGAAUCCUGGGAGUACAUGUCCUCUGUAAGGUUAAAUUUGAAAUUGAACUGCCAAGUAUUCAACAGAGGAUUGAGCAUCA
B18: chr5:37680062:37680063:+_ENSMUSG00000029121_ENSMUST00000031004|mus_hu|mus_mus_mus_hu_False|18_78 (ssRNA)
RNA: GGGAGUUCUACAGUCCGACGAUCUUUGGGUGUAGCUGGUACCUCGUACACAGGACCAUCGUACAUGCCCCUGGAAACCCCUUGCAAUCCAAAAACCUUAUUCCUGAUUUUGACGCGCUGGUAGAGAUGCUCCGGGAACGCCUUCAACAGAGGAUUGAGCAUCA
B19: chr2:119552488:119552489:+_ENSMUSG00000027304_ENSMUST00000028767|mus_mus|FALSE|FALSE (ssRNA)
RNA: GGGAGUUCUACAGUCCGACGAUCAAACAUCGCUUCUUUCCACUUCAUGAAUUCACUUUCAGUGAAUUCUUGGUUGGACACAAACUCUAGGCGGAACACUCGCUGGUCAUUGCCAUGCCGUAGCUGGAGCCCUUUAUUUGUUCUCAACAGAGGAUUGAGCAUCA
B20: chr2:30381511:30381512:+_ENSG00000119801_ENST00000261353|hu_mus|FALSE|FALSE (ssRNA)
RNA: GGGAGUUCUACAGUCCGACGAUCCAUGUGGCGGCCAGUGAGCAUGACCCGAUCUUGAACUUCACUGUACUGCAAGUUAACUACCUUGUUAAAAAGAAAUGCUCUACCAGUGGCGCCUGUGAACCGAGUAGAGAUGAGUUCUGACAACAGAGGAUUGAGCAUCA
B21: chr15:42709458:42709459:-_ENSG00000103994_ENST00000263805|hu_hu|motif|central (ssRNA)
RNA: GGGAGUUCUACAGUCCGACGAUCUCACCAAGAAAGGGAAGAGAGUGGCCUGUGUGGGGGGCCAAUGUGAAAAUAGUUCAACGGAUGACUUCCCAACGUGGGAGGCAAAAAACUUCAUGAAUCAAUUUUGCUGUCAUCUUCAGCCAACAGAGGAUUGAGCAUCA
B22: chr2:65473708:65473709:+_ENSG00000138071_ENST00000260641|hu_hu|motif|central (ssRNA)
RNA: GGGAGUUCUACAGUCCGACGAUCUUUCUCUGGUCCAAAUGUGUAGUCCCACAGGUGUUUCAUGUCAUCCCAAUUUCGUACGGUGCCAUUUUCCAUAGGGUAGUUAACUUCUAACAUUGAUCGUAAUUCACUUGCCUCAUCACCCAACAGAGGAUUGAGCAUCA

Target: T1, UNK ZnF1-3
Assay: nsRBNS (natural sequence RNA bind-n-seq); RBNS binding buffer (assumed for nsRBNS): 25 mM Tris pH 7.5, 150 mM KCl, 3 mM MgCl2, 0.01% Triton X-100, 500 ug/ml BSA, 20 U/ml SUPERase-In, 4 C; UNK is unkempt and MSI1 is Musashi-1; names of the RNAs are library labels; protein concentration not given here; high values mean tight binding

| Binder | binding signal [enrichment R] |
| --- | --- |
| B1 | 1.76 |
| B2 | 0.514 |
| B3 | 0.919 |
| B4 | 0.766 |
| B5 | 1.51 |
| B6 | 0.719 |
| B7 | 1.24 |
| B8 | 0.472 |
| B9 | 0.976 |
| B10 | 1.23 |
| B11 | 0.448 |
| B12 | 1.25 |
| B13 | 1.21 |
| B14 | 0.693 |
| B15 | 0.485 |
| B16 | 1.96 |
| B17 | 1.24 |
| B18 | 0.765 |
| B19 | 0.627 |
| B20 | 1.23 |
| B21 | 1.6 |
| B22 | 0.661 |
